{"source": "paper PMC7360973", "about": "“Feedback regulation of heat shock factor 1 (Hsf1) activity by Hsp70‐mediated trimer unzipping and dissociation from DNA” (The EMBO Journal, 2020)", "biological_target": "T1, Human heat shock transcription factor 1 (Hsf1), wild type (human, UniProt Q00613 1-529)", "T1 construct": "heat shock transcription factor 1 (Hsf1), human, wild type; Purified both as a monomer and as a trimer; One molecule is used for both states; the assay's format tells which was used; also called Hsf1wt; wt; source: E. coli BL21 (DE3) Rosetta, purified (Ni-IDA, Ulp1 cleavage, Superdex 200); monomeric and trimeric fractions collected separately; not shown: His6-SUMO, N-terminal, cleaved", "T1 sequence (looked up)": "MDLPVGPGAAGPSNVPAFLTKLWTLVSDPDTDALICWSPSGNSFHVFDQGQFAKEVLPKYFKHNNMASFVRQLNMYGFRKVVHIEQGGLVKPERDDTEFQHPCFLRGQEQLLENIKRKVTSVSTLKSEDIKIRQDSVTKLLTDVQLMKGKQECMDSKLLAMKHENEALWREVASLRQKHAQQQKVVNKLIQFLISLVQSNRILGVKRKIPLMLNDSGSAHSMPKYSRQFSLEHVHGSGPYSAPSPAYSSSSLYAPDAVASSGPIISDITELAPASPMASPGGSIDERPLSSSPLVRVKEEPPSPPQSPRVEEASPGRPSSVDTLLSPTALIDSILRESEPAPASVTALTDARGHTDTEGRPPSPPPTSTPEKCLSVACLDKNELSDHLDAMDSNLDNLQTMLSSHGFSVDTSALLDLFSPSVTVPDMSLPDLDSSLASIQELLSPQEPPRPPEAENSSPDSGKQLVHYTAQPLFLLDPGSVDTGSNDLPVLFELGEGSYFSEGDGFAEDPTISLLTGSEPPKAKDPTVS", "assay": "HDX-MS; 6 μM Hsf1 (monomer or trimer) pre-incubated 30 min at 25°C with 12 μM Hsc70 or 9 μM DnaJB1 in 25 mM HEPES/NaOH pH 7.5, 150 mM NaCl, 10% glycerol, 2 mM DTT; diluted 10-fold in D2O buffer, 30 s at 25°C; online pepsin digestion", "settings": "both partners purified", "data": [{"binder": "Human DnaJB1/Hdj1 (natural protein, DnaJB1/Hdj1/Hsp40, J-domain co-chaperone, human, wild type; also called Hsp40; source: E. coli BL21 (DE3) Rosetta, purified (Ni-IDA, Ulp1 cleavage, reverse Ni-IDA, Superdex 200)) MGKDYYQTLGLARGASDEEIKRAYRRQALRYHPDKNKEPGAEEKFKEIAEAYDVLSDPRKREIFDRYGEEGLKGSGPSGGSGGGANGTSFSYTFHGDPHAMFAEFFGGRNPFDTFFGQRNGEEGMDIDDPFSGFPMGMGGFTNVNFGRSRSAQEPARKKQ[about 150 residues not spelt out]PERIPQTSRTVLEQVLPI", "values": [{"measurement": "binding result", "value": "binds"}]}]}
